The values that follow come from the RNAGym collection of RNA variant scans (doi:10.1093/nar/gkz1192).

The source gives no read counts; variants with many changes may rest on few reads.

B1: CPEB3 Ribozyme (parent)
chain: UAACAGGGGGCCACAGCAGAAGCGUUCACGUCGCAGCCCCUGUCAGAUUCUGGUGAAUCUGCGAAUUCUGCUGUAUAUCUC

Variants of B1 are the subject of the series. Description: self-cleavage, relative activity (ratio to wild type); higher = more cleavage; in vitro, sequencing. In a few lines: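 CPEB3 self-cleaving ribozyme mutant libraries were made by rounds of error-prone PCR, barcoded, and transcribed in vitro with T7 RNA polymerase for 5 hours at 37°C. Cleavage occurred during transcription and a 15 min DNase I step before EDTA stop. RNAs were reverse transcribed with template switching and Illumina-sequenced, with DNA sequencing mapping barcodes to variants. Relative activity is the variant's cleaved/total read fraction divided by wild type's (minimum 5 reads), averaged across three batches.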
As for UGACAGGGGGACGCAGCAGAAGCGUUCACGUCGCAGCCCCUGUCAGAUUCUGGUGAGUCUGCGAACUCUGCUGUAUAUCUC [A2G C11A A13G A57G U66C], the self-cleavage turned out to be 0.22.
On to UGACAGGGGGCCACAGCAGAAGCGUUCACGUAGCAGCCCCUGCCAGAUUCUGAUGAAUCUGCGAAUUCAGCUGUAUAUCUC [A2G C32A U43C G53A U69A], for which the self-cleavage was found to be 0.07.
Under UGAUAGGGGGCCACAGCAGAAGCGUUCACGUCGCAGCCCCUGUCAGAUUCUGGUGAAUCUGCGAAUUCUGCUGAGUAUCUC [A2G C4U U74A A75G] stands 1.1.
The result for UGAUAGGGGGCCACAGCAGGAGCGCUCACGUCGCGGCCCCUGUCAGAUUCUGGUGAAUCUGCGAAUUCUGCUGUAUAUCUC [A2G C4U A20G U25C A35G] reads 0.19; that for UGACAGGGGGCCACAGCAGAAGCGUUCACGUCGCAGCCCCUGUCAGAUUCUGGUGAAUCUGCGAAUUCUGCUGUAUGCCUC [A2G A77G U78C], 0.56; that for UGACAGGGGGCCACAGCAGAAGAGUUCACGUCACAGCCCCUGUCAGAUUCUGGUGAAUCUGCGAAUUCUGCCGUAUAUCUC [A2G C23A G33A U72C], 0.08.
As for UGACAGGGGGUCACAGCAGAAGCGUUCACGUCGCAGCCCCUGUCGGACUCUGGUGAAUCUGCGAAUUCUGCUGUAUAUCUC [A2G C11U A45G U48C], the self-cleavage is 0.05.
Regarding UGACAGGGGGCCACAGCAGAAGCGUUCACGUCGCAGCCCCUGUCAGAUUCUGGUGUAUCUGCGAAUUCUGCUGUAUCUCUC [A2G A56U A77C], the self-cleavage stood at 0.14.
Take UGACAGGGGGUCUCAGCGGAAGCGUUCACGUCGCAGCCCCUGUCAGAUUCUGGUGAAUCUGUGAAUUCUGCUGUACAUCUC [A2G C11U A13U A18G C62U U76C]: the self-cleavage was 0.06.
With UGACAGGGGGCCACAGAAGAAGCGUUCACGUCGCAGCCCCUGUUAGAUUCUGGAGGAUCUGCGAAUUCUGCUGUAUUUCUC [A2G C17A C44U U54A A56G A77U], the self-cleavage stood at 0.09.
For UGACAGGGGGACACAGCAGAGGCGUUCACGUCGCAGCCCCUGUCAGAUUCUGGUGAAUCUGCGAACUCUGCUGUAUAUCUC [A2G C11A A21G U66C], the self-cleavage was 0.09.
Under UGACAGGGGGCCACAGCAGAAGCGUUCACGUCGAUGCCCCUGUCAGAUUCUGGUGAAUCGGCGUAUUCUGCUGUAUACCUC [A2G C34A A35U U60G A64U U78C] stands 0.12.
The result for UGACAGGGGGCCACAGCAGAAGCGUUCACGUCGCAGCCCCUGUCAGAUUCUGGUGAAUCUGCGAGUUCCGCUGUGUAUCUC [A2G A65G U69C A75G] reads 0.19; that for UGACAGGGGGCAACACCAGAAGCGUUCACGUCGCAGCCCCUGUCAGAUUCUGGUGAAUCUGCGAAUUCUGCUGUAUAUCUC [A2G C12A G16C], 0.08; that for UGACAGGGGGCCAGAGCAGAAGCGUCCACGUCGCAGCCCCGGUCAGAUUCUGGUGAAUCUGCGAAUUCUGCUGUAUAUCUC [A2G C14G U26C U41G], 0.1.
The result for UGACAGGGGGCCACAGUGGACGCGUUCACGUCGCAGCCCCCGUCAGAUUCUGGUGAAUCUGCGAAUUCUGCUGUAUAUCUC [A2G C17U A18G A21C U41C] reads 0.1.
Regarding UGACAGGGGGCCACAGCAGAAGCGUUCACGUCGCAGGCCCUGUCAGAUUCUGGUGAAUCCGCGAAUCCUGCUGUAUAUCUC [A2G C37G U60C U67C], the self-cleavage was found to be 0.09.
The result for UGACAGGGGGACACAGCAGAAGCGUUCUCGUCGCAGCCCCUGUCAGAUCCUGGUGAAUCUGCGAAUUCUGCUGUAUAUCUC [A2G C11A A28U U49C] reads 0.08; that for UGACAGGGGGCCACAGCAGAAGUGUUCACGUCGCAGCCCCUGUCAGAUUCUGGUGAAUCUGCGAACUCUGCCGUAUAUCUC [A2G C23U U66C U72C], 0.06; that for UGACAGGGGGCUACAGCGGAGGCGUUAACGUCGCAGCCCCUGUCAGAAUCUGGUGAAUCUGCGAAUUCUGCUGUAUAUCUC [A2G C12U A18G A21G C27A U48A], 0.05.
With UGACAGGGGGGCACAGCAGAAGCGUUCACGUCGCAGCCCCUGUCAGAUUCUGGAGAAUCUGCGAGUUCUGGUGUAUAUCUC [A2G C11G U54A A65G C71G], the self-cleavage was found to be 0.09.
For the variant UGAAAGGGGGCCACAGCGGAAGCGUUCACGUCGCAGCCCCUGUCAGAUUCUGGUGAAUCUGCGAAUUCUGCUGUAUAUCUC [A2G C4A A18G], the self-cleavage came to 1.08.
As to UGACAGGGGGCCACAGCAGAAGCGUUCACGUCGCAGACCCUGUCAGAUUCUGGUGAAUCUGCGAAUUCUGCUGUAUAUCCC [A2G C37A U80C], the self-cleavage is 0.25.
Under UGACAGGGGGGCACAGCUGAAGCGUUCACGUCGCAGCCCCAGUCAGAUUCUGGUGAAUCUGCGAAUUUUGCUGUAUAUCCC [A2G C11G A18U U41A C68U U80C] stands 0.06.
UGACAGGGGGCCACAGCAGAAGAGUUCUCGUCGCAGCCCCAGUCAGAUUCUGGUGAAUCUGCGAAUUCUGCUGUAUAUCUC [A2G C23A A28U U41A]: the self-cleavage is 0.27.
Consider UGACAGGGGGCCACAGCAGAAGCGUUCACGUCGUAGCCCCCGUCAGAUUCUGGUGAAUCUGCGAAUCCUGCUGUAUACCUC [A2G C34U U41C U67C U78C], for which the self-cleavage came out at 0.44.
Under UGACAGGGGGCCAUGGCAGAAGCGUACACGUCGCAGCCCCUGUCGGAUUCUGGAGAAUCUGCGAAUUCUGCUGUGUAUCUC [A2G C14U A15G U26A A45G U54A A75G] stands 0.1.
Under UGACAGGGGGCCACAGCAGAAGCGUUCACGUCGCAGCCCCUGUCAGAUUCUGGUGAAUCUGCGGAUUCUGCUGUAUACCUC [A2G A64G U78C] stands 0.47; under UGACAGGGGGCCAAAGCAGAAGCGUUCAAGUCGCAGCCCCUGUCAGAAUCUGGUGAAUCUGCGUAUUCUGCUGUAUAUCUC [A2G C14A C29A U48A A64U], 0.12; under UGACAGGGGGCCACAGCAGAAGUGUUCACGUCGCAGCCCCUGCCAGAUUCUGGUGAAUCUACGAAUUCUGCUGUAUAUCCC [A2G C23U U43C G61A U80C], 0.08.
Consider UGACAGGGGGCUACUGCAGAAGCGUUCACGUCGCAGCCCCUGUCAGAUUCUGGUGAAUCUGCGAAUUCUGCUGUAUAUCUC [A2G C12U A15U], for which the self-cleavage came to 0.61.
For UGACAGGGGGCCACAGCAGAAGCGUUCAUGUCGCAGCCCCAGUCAGAUUCUGGUGAACCUGCGAAUUCUGCUGUAUAUCUC [A2G C29U U41A U58C], the self-cleavage was determined as 0.08.
Regarding UGACAGGGGGCCACAGCAGAAGCGUUCACGUAGCAGCGCCUGUCAGAUUCUGGUGAAUCUGCGAAUUCUGCCGUAUAUCUC [A2G C32A C38G U72C], the self-cleavage turned out to be 0.36.
The result for UGACAGGGGGCCACAGCAGAAGGGUUCACGUCGCAGCCCCUGUCAGAUUCUGGUGUAUCUGCGAAUUCUGCUGUCUAUCUC [A2G C23G A56U A75C] reads 0.3.
